“And” between values parts separate entries of the source, which are not always exact repeats. Identical values can stand only once.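 Test compounds were applied to cells in 96-well plates for 48 hours at 5 doses. GI50 marks 50% less growth. At the TGI there is no net growth.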 Numbered stars: 1 amine (or outer) side, 2 acyl side, 3 side chain; on linkers, the order of the positions; unused ones are H or OH. Bridge positions count the residues as written; N and C are the ends. Square brackets hold non-standard residues; d marks the D form. Peptide text beside a SMILES is read from it. X54 = COc1c(N[*:1])cccc1C(=O)O[C@H](C(=O)[C@H](C)C(=O)[*:2])C(C)C; X53 = CC(C)C[C@H](C(=O)[*:2])C(C)C(=O)C1CCCN1[*:1]; NMeY = CN[C@@H](Cc1ccc(O)cc1)C(=O)O; Lac = C[C@H](O)C(=O)O

The assay concerns NCI-H322M lung. Nature of the assay: NCI anticancer screen, dose series, 48 h.
`C[N+]1(c2ccccc2)C=C(c2ccccc2)SC1=S` (centres undefined): the TGI is > 100 µM.

Compound `COC(=O)/C=C1/OC(c2ccc(C)cc2C)=CC1=O` came in with a TGI of 35.3 µM.

For the compound `CC[C@H]1C=CCC[C@@]2(C[C@@H]3CC[C@H]4[C@@H](C(=O)OCCCCCCCCCCCCCCCC(=O)N(CCCNC(C)=O)C[C@H](CCNC(C)=O)OC(C)=O)[C@@]5(CCC[C@@H](C)O5)NC(=[N+]34)N2)O1`, the TGI came to 3.08 µM.

Consider `Cc1cc(Cl)cc2c1NC(=O)C2(O)CC(=O)c1ccc(F)cc1` (centres undefined), for which the TGI is > 100 µM.

Regarding `CC(=O)Oc1cc(/C=C/c2ccc(O)cc2)cc(OC(C)=O)c1`, the TGI is > 100 µM.

On to `CSC(=NC#N)S/C=C/C(=O)c1cccc2ccccc12`, for which the GI50 was 34.8 µM and the TGI is > 100 µM.

Turning to `CCNC1=C(NC(=O)c2ccc(OC)cc2)C(=O)c2ccccc2C1=O`, the TGI is > 100 µM.

Compound `Nc1ncc(N)c(NCC2(CO)CC(CCc3ccccc3)C2)n1` (centres undefined) showed a TGI of 28.9 µM.

Regarding `COC(=O)C1Cc2c([nH]c3ccccc23)-c2[nH]c3ccccc3c2CC(NC(C)=O)C(=O)NCC(=O)NCC(=O)N1` (centres undefined), the TGI is > 100 µM.

In the case of `[O-]/[N+](=N/c1ncc(-c2ccccc2)cn1)c1ncc(-c2ccccc2)cn1`, the TGI is > 100 µM.

For the compound `N#CCN1CCN(CC#N)CCN(CC#N)CCN(CC#N)CC1`, the TGI was > 100 µM.

`Cn1ccc2c3c(=O)cc[nH]c3ccc21`: the GI50 is > 100 µM and the TGI is > 100 µM.

Turning to `O=C(CSc1nc2ccc(I)cc2c(=O)n1Cc1ccccc1)NN1C(=O)CSC1c1ccccc1` (centres undefined), the TGI is > 100 µM.

As for `Cc1ccc(S(=O)(=O)OI(O)CC(F)(F)F)cc1`, the TGI is > 100 µM.

In the case of `CCC1(CC)C(=O)NN(C(=O)c2ccc(Cl)cc2)C1=O`, the TGI is > 100 µM.

With `CCOc1ccc(NC(=O)c2cc3ccccc3cc2O)cc1`, the GI50 was > 100 µM and the TGI is > 100 µM.

On to `Cc1[nH]c(=O)nc(N/N=C/c2ccc(Cl)cc2)c1C(=O)Nc1ccc(Cl)cc1`, for which the TGI is > 100 µM.

On to `O=c1cc(-c2ccc3ccccc3c2)[nH]c2ncccc12`, for which the TGI was > 100 µM.

On to `Nc1cc(N)cc(Cc2ccccc2)c1`, for which the TGI was > 100 µM.

As to `COc1ccccc1Nc1nc2ccccc2c2occc12`, the GI50 was 11.4 µM and the TGI turned out to be 34.1 µM.

Turning to `CC1=NN(C(=O)CC(=O)Nc2ccc(Cl)cc2)C(=O)C1N=Nc1ccc(S(=O)(=O)c2ccc(N=NC3C(=O)N(C(=O)CC(=O)Nc4ccc(Cl)cc4)N=C3C)cc2)cc1` (centres undefined), the TGI is > 100 µM.

With `C/C(CC(=O)Nc1ccccc1)=N\NC(N)=S`, the TGI was > 100 µM.

As for `CCOC(=O)C1=C(C)N(NC(=O)OC)C2(N)N(NC(=O)OC)C(C)=C(C(=O)OCC)C12C#N` (centres undefined), the TGI is > 100 µM.

As for `CCOC(=O)C(O)Cc1cnc2ccccc2n1` (centres undefined), the TGI was > 100 µM.

With `COC(=O)/C=C/c1ccc2c(c1)[C@H](C(=O)OC)[C@@H](c1ccc(O)cc1)O2`, the TGI was > 100 µM.

For `CNC1=CC(=O)C2=C(C1=O)C1C3=C(C(=O)C(Br)=C(OC)C3=O)C2c2ccccc21` (centres undefined), the GI50 was 11.5 µM and the TGI worked out at 21.6 µM.

The compound `O=C1c2ccccc2C(=O)c2sc(Nc3ccc(Cl)cc3)nc21` returned a TGI of 10.5 µM.

For the compound `CC(C)(C)Cc1cc(O)ccc1O`, the TGI is > 100 µM.

Regarding `COc1cc(/C=C2\C(=O)N(c3ccc(NC(C)=O)cc3)C(c3ccccc3)S2(=O)=O)cc(OC)c1OC` (centres undefined), the TGI is > 100 µM.

In the case of `C[C@@H]1CC[C@@H]2[C@@H]1[C@H](OC(=O)c1ccc3ccccc3c1)[C@]1(C3CCCCC3)C[C@@H](OC(=O)CO)[C@@]2(C)O1`, the GI50 is 15.2 µM and the TGI worked out at 29 µM.

The compound `O=C1O/C(=C\C=C\CO)C=C1/C=C/CO` registered a TGI of 95.1 µM.

In the case of `O=C([CH-]C(=O)c1ccccc1)c1ccccc1.[CH3-].[CH3-].[CH3-].[Sn+4]`, the GI50 is 16 µM and the TGI was determined as 71.8 µM.

With `NC(=S)N/N=C1\CC(c2ccccc2)Nc2ccccc21` (centres undefined), the TGI was > 100 µM.

Turning to `CC(C)=CC[C@H]1C[C@@]2(CC=C(C)C)C(=O)/C(=C(/O)c3ccccc3)C(=O)[C@](CC=C(C)C)(C2=O)C1(C)C`, the TGI was determined as 20.6 µM.

As to `C[N+]1(C)C/C(=C\c2ccc(O)cc2)C(=O)/C(=C/c2ccc(O)cc2)C1`, the TGI was > 100 µM.

As for `O=C1[C@@H]2C(c3ccncc3)=NO[C@@H]2C(=O)N1c1ccc(Cc2ccc(N3C(=O)[C@H]4C(c5ccncc5)=NO[C@H]4C3=O)cc2)cc1`, the TGI was > 100 µM.

In the case of `CCCCCCCC(=O)NS(=O)(=O)c1ccccc1`, the TGI was > 100 µM.

With `CC(C)(C)OC(=O)NCC(=O)N(CCc1ccc(Cl)c(Cl)c1)CCN1CCCC1`, the TGI stood at 40 µM.

Consider `O=c1oc2c(cc1-c1ccccc1)C(O)Oc1ccccc1-2` (centres undefined), for which the GI50 is 16.1 µM and the TGI was > 100 µM.

Regarding `CC(C)(C)CN1[C@@H]2CCCC[C@H]2N(CC(C)(C)C)P1(=O)C(O)/C=C/c1ccccc1` (some centres undefined), the TGI is > 100 µM.

As to `Cc1ccc(S(=O)(=O)NC(=O)NCC(N)=O)cc1`, the TGI is > 100 µM.

Take `CCCC(=O)O[C@]1(C)CC[C@@H]2[C@H]3[C@@H]1[C@@H]1C/C(C)=C\CC[C@](C)(OC(=O)[C@@H]2C)[C@H]3O1`: the GI50 was > 100 µM and the TGI was > 100 µM.

On to `Cc1nnc2n1N=C(c1ccc(-c3ccc([N+](=O)[O-])cc3)o1)CS2`, for which the TGI was > 100 µM.

Take `CC(C)N(C(=O)C12C3(C(=O)C(C)(C)C)C4C5(C#N)C3C1(C(=O)C(C)(C)C)C5C42C(=O)C(C)(C)C)C(C)C` (centres undefined): the TGI was > 100 µM.

As for `COc1ccc(C[C@H]2C(=O)O[C@H](C)[C@H](NC(=O)[C@@H](CC(C)C)C(C)C(=O)C3CCCN3C(=O)[C@H](C)O)C(=O)Nc3cccc(c3OC)C(=O)O[C@@H](C(C)C)C(=O)[C@H](C)C(=O)N[C@@H](CC(C)C)C(=O)N3CCC[C@H]3C(=O)N2C)cc1` (some centres undefined) (H-[Lac][X53]T[X54]LP[NMeY](Me); ester 3-C), the TGI is > 12.5 µM.

On to `CC(C(=O)O)C1Nc2ccccc2NC1=O` (centres undefined), for which the TGI was > 100 µM.

`Cc1cccc(Cl)c1NC(=O)c1cccc([N+](=O)[O-])c1O`: the TGI is > 100 µM.

As for `COc1cc2c(c(OC)c1OC)C(=O)c1c-2n(CCCN=[N+]=[N-])c(=O)c2cc([N+](=O)[O-])ccc12`, the GI50 was > 100 µM and the TGI was > 100 µM.

Regarding `COC(=O)/C(C#N)=C(/NCc1ccccc1)Nc1ccccc1`, the TGI was > 100 µM.

For `O=C(Nc1cc(C(F)(F)F)cc(C(F)(F)F)c1)Nc1ccc(OCc2nnc(-c3ccc(Cl)cc3)o2)c(F)c1`, the GI50 was 3.52 µM and the TGI turned out to be 29.8 µM.

`C[n+]1cc2cc3c(cc2c2ccccc21)OCO3`: the GI50 is 3.5 µM and the TGI stood at 24.7 µM.

Regarding `COc1ccc(C(c2cc(OC)c(OC)c(OC)c2)N2C(=O)CCC2C(=O)O)cc1` (centres undefined), the TGI was > 100 µM.

`Cc1cccc(/C=C2/C(=O)Nc3ccccc32)n1` displayed a TGI of 27.4 µM.

Take `OCC#CCCCCOCC#Cc1ccccc1C#CCOCCCCC#CCO`: the GI50 is 16.7 µM and the TGI was found to be 60.8 µM.

Take `CCCCCCCCc1ccc(CCC(N)(CO)CO)cc1`: the GI50 is 3.14 µM and the TGI is 10.4 µM.

On to `COc1ccc(Nc2ncc(-c3ccccc3)o2)cc1OC`, for which the GI50 was 10.5 µM and the TGI was > 25 µM.

`N#Cc1nc(-c2ccc(-c3nc(C#N)c(N)o3)cc2)oc1N`: the TGI is > 10 µM.

The compound `Brc1ccc(N=Nc2ccc3ccccc3n2)cc1` came in with a TGI of 58.6 µM.

Turning to `Cn1nc(S(N)(=O)=O)s/c1=N/S(=O)(=O)c1ccc(N)cc1`, the TGI was > 100 µM.

Turning to `COCCNC1CCC(=O)c2[nH]c3ccccc3c21` (centres undefined), the TGI is > 100 µM.

For the compound `N#CSCC1CC(O)(c2ccccc2)CC(c2ccc(Cl)cc2)O1` (centres undefined), the GI50 is 4.98 µM and the TGI was found to be 19.1 µM.

Consider `CN(N=O)C(=O)Nc1ccc(C(=O)O)cc1`, for which the TGI is > 100 µM.

Consider `Cc1cc(Cl)ccc1N1C(=O)C(=O)C(c2nc3ccccc3o2)C(=O)C1=O`, for which the TGI is > 100 µM.

Compound `C=C1C(=O)OC2/C=C(\C)CC/C=C(\C)CC(OC(=O)/C(=C/CO)CO)[C@@H]12` (some centres undefined) showed a TGI of 42 µM.

Turning to `Cc1ncc(COP(=O)(O)O)c(C)c1O`, the TGI is > 100 µM.

In the case of `O=C(c1ccccc1)c1ccc(O)c2ncccc12`, the GI50 is 2.57 µM and the TGI came to 24.8 µM.

On to `CCCC(CCC)Oc1ccc(CCCC2=C(O)c3ccccc3C(=O)C2=O)cc1`, for which the GI50 was 10.6 µM and the TGI is 24.2 µM.

Turning to `Cc1c(-c2ccccc2)c(C#N)c2nnn(C)c(=O)n12`, the TGI is > 100 µM.

As for `Oc1ccc2ccccc2c1NCn1nc(CCCCCCCCc2nn(CNc3c(O)ccc4ccccc34)c(=S)o2)oc1=S`, the TGI is > 100 µM.

Turning to `Cc1cc(S(=O)(=O)Nc2nc3ccccc3[nH]2)c(SCc2ccccc2)cc1Cl`, the GI50 was 26 µM and the TGI was > 100 µM.

In the case of `COc1ccc(OC2OC(CO)C(O)C(O)C2O)cc1` (centres undefined), the TGI was > 100 µM.

Consider `C=CCN1C(=O)/C(=C/c2ccc(OC)cc2)N=C1SC1OC(COC(C)=O)C(OC(C)=O)C(OC(C)=O)C1OC(C)=O` (centres undefined), for which the GI50 was 16.3 µM and 44 µM; the TGI was 30 µM and > 100 µM.

As to `O=C(/C=C/c1ccc(O)cc1)c1cc(-c2cc(CCC(=O)c3ccc(O)cc3O)ccc2O)c(O)cc1O`, the TGI is > 50 µM.

For `COC1=CC(=O)c2c(n[nH]c2CCNC(=O)OCc2ccccc2)C1=O`, the TGI was found to be 34.2 µM.

Regarding `COc1ccc(C2N3CCCCC3[C@@H]3c4[nH]c5ccccc5c4CCN23)c(OC)c1` (some centres undefined), the TGI was > 100 µM.

As for `C=CC[C@@]12CCC(=O)C=C1CCCC2=O`, the TGI is > 100 µM.

For `CCOC(=O)CNC(=O)CNC(=O)CNC(=O)CNNc1c(OCc2ccccc2)c(=O)c1=O`, the TGI was > 100 µM.

On to `N/N=C(/CC(O)(C(F)(F)F)C(F)(F)F)c1ccccc1`, for which the TGI was > 10 µM.

Take `CC(=O)OC1CC2(O)C(CCC3(C)C(c4ccc(=O)oc4)CCC32O)C2(C)CCC(OC3OC(CO)C(O)C(O)C3O)C=C12` (centres undefined): the GI50 was 0.0275 µM and the TGI was found to be 0.0951 µM.

Regarding `CN1C(=O)C(C#N)C2C[C@@]1(C)Oc1ccccc12` (some centres undefined), the TGI was > 100 µM.

On to `COC(=O)c1ccc(NC(N)=NCC(C)(C)COc2ccc(C(F)(F)F)cc2)nc1`, for which the GI50 was 1.64 µM and the TGI turned out to be 3.09 µM.

For `O=C(O)c1nnsc1-c1csnn1`, the TGI is > 100 µM.

The values are drawn from PubChem BioAssay (NCI).
